± gives the standard deviation of the averaged measurements. Restriction of a single-cycle SIVsab GFP reporter by TRIM5α v1-loop variants in CRFK cells. Human variants: read share among cells still uninfected after two challenges over input, higher = gained restriction. Rhesus variants: share among infected cells over input, higher = lost restriction. Reporter dose not given per row. No active / inactive call per row; the paper calls a change when both replicates lie above its controls (mean + 2 SD of stop or wild-type variants, or the top frameshift score). Residues outside the varied loop are taken from Swiss-Prot. The paper reads the human single-substitution scores as noise; they and the rhesus combinations repeat poorly (rank correlation 0.3 to 0.4), indel scores repeat only for the top variants, rhesus substitutions well (0.9).
What follows are sequences tested on SIVsab (simian immunodeficiency virus of sabaeus monkeys), single-cycle GFP reporter, in CRFK cells (assay: enrichment among infected cells over input (fold); higher = weaker restriction). Conditions: library: human / rhesus combinations.
Experimental: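 Pools of CRFK cells expressing variants of the TRIM5α v1 loop were challenged with the single-cycle reporter, sorted by GFP and sequenced; mean of two replicates.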

Row | Sequence | enrichment
1 | MASGILLNVKEEVTCPICLELLTEPLSLHCGHSFCQACITANHKKSMLYKEGERSCPVCRISYQPENIQPNRHVANIVEKLREVKLSPEEGQKVDHCARHGEKLLLFCQEDSKVICWLCERSQEHRGHHTFLMEEVAQEYHVKLQTALEMLRQKQQEAEKLEADIREEKASWKIQIDYDKTNVSADFEQLREILDWEESNELQNLEKEEEDILKSLTKSETEMVQQTQYMRELISELEHRLQGSMMDLLQGVDGIIKRIENMTLKKPKTFHKNQRRVFRAPDLKGMLDMFRELTDARRYWVDVTLAPNNISHAVIAEDKRQVSSRNPQIMYGAPGTLFTFQSLVNFNYCTGVLGSQSITSGKHYWEVDVSKKSAWILGVCAGFQSDAMYNIEQNENYQPKYGYWVIGLQEGVKYSVFQDGSSHTPFAPFIVPLSVIICPDRVGVFVDYEACTVSFFNITNHGFLIYKFSQCSFSKPVFPYLNPRKCTVPMTLCSPSS [rhesus TRIM5α, 332-344 = GAPGTLFTFQSLV] | 0.801 ± 0.2
2 | MASGILLNVKEEVTCPICLELLTEPLSLHCGHSFCQACITANHKKSMLYKEGERSCPVCRISYQPENIQPNRHVANIVEKLREVKLSPEEGQKVDHCARHGEKLLLFCQEDSKVICWLCERSQEHRGHHTFLMEEVAQEYHVKLQTALEMLRQKQQEAEKLEADIREEKASWKIQIDYDKTNVSADFEQLREILDWEESNELQNLEKEEEDILKSLTKSETEMVQQTQYMRELISELEHRLQGSMMDLLQGVDGIIKRIENMTLKKPKTFHKNQRRVFRAPDLKGMLDMFRELTDARRYWVDVTLAPNNISHAVIAEDKRQVSSRNPQIMYQARGTRFQSFTNFNYCTGVLGSQSITSGKHYWEVDVSKKSAWILGVCAGFQSDAMYNIEQNENYQPKYGYWVIGLQEGVKYSVFQDGSSHTPFAPFIVPLSVIICPDRVGVFVDYEACTVSFFNITNHGFLIYKFSQCSFSKPVFPYLNPRKCTVPMTLCSPSS [rhesus TRIM5α, 332-344 = QARGTRFQSFT] | 2.08 ± 2.2
3 | MASGILLNVKEEVTCPICLELLTEPLSLHCGHSFCQACITANHKKSMLYKEGERSCPVCRISYQPENIQPNRHVANIVEKLREVKLSPEEGQKVDHCARHGEKLLLFCQEDSKVICWLCERSQEHRGHHTFLMEEVAQEYHVKLQTALEMLRQKQQEAEKLEADIREEKASWKIQIDYDKTNVSADFEQLREILDWEESNELQNLEKEEEDILKSLTKSETEMVQQTQYMRELISELEHRLQGSMMDLLQGVDGIIKRIENMTLKKPKTFHKNQRRVFRAPDLKGMLDMFRELTDARRYWVDVTLAPNNISHAVIAEDKRQVSSRNPQIMYGAPGTRFTFQSLVNFNYCTGVLGSQSITSGKHYWEVDVSKKSAWILGVCAGFQSDAMYNIEQNENYQPKYGYWVIGLQEGVKYSVFQDGSSHTPFAPFIVPLSVIICPDRVGVFVDYEACTVSFFNITNHGFLIYKFSQCSFSKPVFPYLNPRKCTVPMTLCSPSS [rhesus TRIM5α, 332-344 = GAPGTRFTFQSLV] | 1.03 ± 0.23
4 | MASGILLNVKEEVTCPICLELLTEPLSLHCGHSFCQACITANHKKSMLYKEGERSCPVCRISYQPENIQPNRHVANIVEKLREVKLSPEEGQKVDHCARHGEKLLLFCQEDSKVICWLCERSQEHRGHHTFLMEEVAQEYHVKLQTALEMLRQKQQEAEKLEADIREEKASWKIQIDYDKTNVSADFEQLREILDWEESNELQNLEKEEEDILKSLTKSETEMVQQTQYMRELISELEHRLQGSMMDLLQGVDGIIKRIENMTLKKPKTFHKNQRRVFRAPDLKGMLDMFRELTDARRYWVDVTLAPNNISHAVIAEDKRQVSSRNPQIMYGARGTLYTFQTLVNFNYCTGVLGSQSITSGKHYWEVDVSKKSAWILGVCAGFQSDAMYNIEQNENYQPKYGYWVIGLQEGVKYSVFQDGSSHTPFAPFIVPLSVIICPDRVGVFVDYEACTVSFFNITNHGFLIYKFSQCSFSKPVFPYLNPRKCTVPMTLCSPSS [rhesus TRIM5α, 332-344 = GARGTLYTFQTLV] | 0.517 ± 0.099
